# In the supplement of paper PMC3334620:
# Whole data set: some 33,000 sequences, median “E-score (-0.5 to 0.5)” near -0.04, cut for the highest 2% near 0.36. The list shows a part of the results.
# Molecular target: T1, Hmlalpha2 (UniProt P0CY09)
# T1 sequence: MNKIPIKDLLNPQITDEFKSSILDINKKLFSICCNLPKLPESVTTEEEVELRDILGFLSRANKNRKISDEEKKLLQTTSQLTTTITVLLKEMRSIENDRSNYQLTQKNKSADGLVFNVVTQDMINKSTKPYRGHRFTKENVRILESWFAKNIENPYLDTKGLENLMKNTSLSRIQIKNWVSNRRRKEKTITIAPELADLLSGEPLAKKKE
# Assay: PBM E-score (8-mer binding enrichment) (E-score (-0.5 to 0.5)); higher = stronger / more preferred TF binding; most listed sequences are background and not binding sites
# Settings: protein concentration: 200 nM; construct: GST-full length
# Procedure: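 Universal 'all 10-mer' protein binding microarrays (Agilent AMADID 015681) probed with GST-tagged S. cerevisiae TFs (full-length or DBD) made by in vitro transcription/translation (PURExpress), about 100-200 nM. Bound TF was detected with fluorescent anti-GST. Each ungapped 8-mer (which stands for itself and its reverse complement) is scored by the PBM enrichment score (E-score), a modified Wilcoxon-Mann-Whitney statistic from -0.5 to +0.5, computed with the Universal PBM Analysis Suite. Scale: above 0.35 generally sequence-specific binding.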
row,Sequence,PBM E-score
1,ATCTATTC,-0.0341
2,TATTAAGA,0.0998
3,AGATTTCA,0.115
4,ATTGGGGA,-0.192
5,AATCACTA,0.00721
6,CATGAGCC,-0.00078
7,CGCAGTAG,-0.0703
8,CTAGTGAC,-0.0738
9,AGCCTTCA,-0.0117
10,TGCAGCCA,-0.185
11,CTCGCCCA,-0.141
12,CATTGCAA,0.0072
13,TAAAGCAA,0.139
14,AATGCCGT,0.0599
15,AGGACGAA,-0.132
16,AGCCAGCT,0.0204
17,TATCACCA,0.0236
18,CGCATCGA,0.0626
19,AACACCTC,-0.0165
20,CTCGATGA,-0.0377
21,GGTACAAA,0.138
22,AATTGCCA,-0.0393
23,CCATAGCG,-0.0817
24,ATTGTCCG,0.00715

row,Sequence,PBM E-score
1,CCGATATC,-0.0999
2,AAGGGCTG,-0.315
3,GAAGATGC,-0.305
4,AATACAAA,0.363
5,ACGCGGTG,0.228
6,CAGACAGG,-0.219
7,GGCGATCA,-0.0532
8,AGATTGGA,-0.00393
9,CCTATACC,-0.28
10,CGCCAAAC,-0.146
11,GGAGGGAA,-0.325
12,GAACCTAA,-0.135
13,GACTTCCC,-0.275
14,CGAAACAC,0.179
15,CAGGCCTC,-0.177
16,GCTCGACA,-0.0369
17,CACGATTC,0.114
18,AACAAGGC,0.219
19,ATTACGTC,0.321
20,CGCATAAC,-0.041
21,TATTCCGA,0.0922
22,AACTTGCT,-0.0772
23,ACCTGGAG,0.0158
24,TACTGCAA,0.0107

row,Sequence,PBM E-score
1,TACAGTGA,0.194
2,TCCAGCCA,-0.0964
3,ACCCTTGG,-0.263
4,CCAATCGC,-0.252
5,AGCAAGGC,-0.225
6,TGCAGGCA,-0.0877
7,ATGACAGG,-0.0747
8,AAATGCAT,0.0313
9,ACACGTGG,0.293
10,AGATGCTA,-0.0455
11,AACATGGG,0.415
12,GGCATAAC,-0.0304
13,CTGTCGGA,0.0323
14,ACAAGTCA,0.0314
15,CCGTCTCG,-0.159
16,GTGCCGGA,-0.275
17,CTAGAGGC,-0.176
18,ATCACGGC,-0.103
19,CGCTTTTA,0.152
20,AATATGAT,-0.0482
21,AGTGACGC,-0.0855
22,GTTCCTGA,-0.267
23,ACGATCGA,0.0963
24,AGTGCAGC,-0.0472

row,Sequence,PBM E-score
1,GCTTAACC,-0.00807
2,AACCACTA,0.0213
3,GGACGGGA,-0.229
4,GAGTAAGA,0.146
5,CACGCGCC,0.129
6,CGGTGTAA,0.285
7,AAAGTATT,0.0571
8,GGTATAGA,-0.00821
9,GACAGGCA,-0.257
10,ACTGAAGT,-0.114
11,GTGGGTAA,0.0692
12,ATTCGATC,0.0959
13,AGCCCCGA,-0.231
14,TAGGCCAA,-0.0405
15,ATCATAAG,-0.00054
16,GAGCAGGC,-0.138
17,GAACAGAC,0.0203
18,GTTGGGAA,0.0189
19,AGCCGGGC,-0.15
20,GGGATATA,-0.125
21,CGCTCAAC,0.06
22,ATAATAAT,0.181
